Assay results reported in the RNAGym collection of RNA variant scans (doi:10.1073/pnas.2313332121).
Variants at the background level are over-represented here.

B1: TPR 5TU (parent)
chain: GGAUCUUCUCGAUCUAACAAAAAAGACAAAUCUGCCACAAAGCUUGAGAGCAUCUUCGGAUGCAGAGGCGGCAGCCUUCGGUGGCGCGAUAGCGCCAACGUUCUCAACUAUGACACGCAAAACGCGUGCUCCGUUGAAUGGAGUUUAUCAUG

Variants of: B1
Assay: polymerase ribozyme fitness, log enrichment relative to wild type (log ratio); higher = more active; in vitro selection for triplet polymerase activity
In short: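 A heterodimeric triplet polymerase ribozyme had each of its subunits mutagenized by PCR into a library, which was transcribed. One round of in vitro selection, done in triplicate, annealed each library with a biotinylated primer, its partner subunit and triplets, then incubated it frozen at −7 °C before gel excision of extended constructs, streptavidin-bead capture and RT-PCR. Fitness is the logarithm of genotype enrichment relative to wild-type enrichment, based on Illumina sequencing of inputs and outputs and inverse-variance-weighted replicate averages. A base-2 logarithm is used, and genotypes were kept only with ≥10 input reads and ≥1 read per output.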

Polymerase ribozyme fitness (log ratio), ≤ -4.2:
C8A C27G U53A U55A G58A G65A A66C A73C C96G
C8A A91G A142U G143U U145G
C8A C76G G92U
C8U A20C C51U G88C A150G
C8A A17G G50C C85A
C8A A37G G94A C123G A150U
C8U A17U A24C G71C A120C
C8A C14G U55A C85U G88U A138U
C8U A26C C76G G94C C125A
C8G G50A A66C G84A
C8A A16U A73U G86U
C8U A20G C57A C72A U78G G83U G86A
C8A G68U U82G C95A G100C
C8A C38U G80C C85U G100U
C8G U9A C10A C35U G58A C85A U111G
C8G A24G G83C C93A U127G G140A A147G
C8G C85G
C8G A12G A29U C36A U44A G68U
C8G C18U G50U C54U C79G G86A
C8G A39U C57G G58A G94A C108U
C8A C38A G80C
C8A U13G C14U U45A G50C G59C C69U
C8G A28G G59C A73G A115C A120U G141C
C8G U61G C63U C85G
C8G G50A C54G U56A G74C C87A C116A G141C
C8G U31A A47G U55A C57U G81A U102G C103U C114A U134C
C8G A47C C51A G94U A107G A142C C149G A150C
C8G U15A A29C A60G G83A G100A A121G G141A
C8A U53A C85U A98G C114A C125G
C8A A66C A121G G141C
C8G A23U A28G C35A A47U C93G A107G C132G U135G A142C
C8G U56G C87G A91G C93G A142U
C8G C32G C57A C85U C118G A142U
C8G G25U A60G C85U U90C A142C U148C
C8A A21U G94C A97G A107U G140U U144G
C8U A21C A22U C43A U61A G94A A97C A138G
C8G U9G A26G U31G U44A U61G G94C
C8A A30U C43G U144C
C8G G88C
C8G C27U U45A C93G C149G
C8G A147C
C8U A20C G58U G59A C87G C96U C105A
C8A A24U U33G G86U A91C C129G
C8A U55G C87U
C8A A30U G71A U82G C95A C103G U134A G141U
C8A U33G A41U A49C G50C C51A C54A G71C C93A G124U G140C
C8A C43U U53G G84C U139A
C8A A40U G42A G68A C85U U144G
C8A A66U U78G G92U
C8G A41U C96U A106U C123A G140C
C8U A24U A26U U55A C87A
C8G C18U G58A C79U C85U A98U G117A U146G
C8U A20G A39C G83C A91U U145C
C8G U53A C69A G140C
C8G A29U A41G U61A G68A U82C A89G C116U
C8A U53G A89U A91U C93G C105U G143U U146A G152A
C8A U15A G25U A37C G42U A49G C95A C108G
C8A U15A C85G A91G C103G
C8A A17C C35U C63A
C8U A28C A37C C57U G67C G74C C93U U104C U144C
C8A U9G C10U C75U C87U G92U U135G U139G G141U
C8A G71C U77G G86A
C8U A26U U44A C85U A115U C118A G133U
C8G U45A U55G G88U G126A
C8A U13G G34A C87G U104G G140A
C8G A16C G25U A37C G59C A64U C87A G92C
C8A C18A C36G U53A U55G A142U U144G
C8A A22G G50C
C8G U13A A22G A26U A37U G68C G136C U148C A150G
C8A A23G C57G G58A G68A C85G U109G
C8G C10A U56A C87A
C8A A41U
C8G A30U C43G C51U U55A A89U
C8G A24G A28C C43A C105G A122C A147U
C8U A16U A47G U56G G65U G68C G83A A89U
C8U A16U A21C A26G C54U C69A U78G G81U C116A
C8A U13G C51G A60G C93A C99U
C8G A21C G74U G84A U135A
C8A A37U C85A C93U G141C A147C
C8G C43G A52G C93G C114G A121G
C8G A26C G74A C85G
C8G A39G C87A A138G
C8G A41U A49C G62A C79U C85U C96U C114G A115G
C8A U55A C79U G84A C108G G124A
